22 molecules from paper PMC12136788 can be followed below.

The labels stand for the following.
T1: UNK ZnF1-3 (human, UniProt Q9C0B0 31-174)
T1 sequence: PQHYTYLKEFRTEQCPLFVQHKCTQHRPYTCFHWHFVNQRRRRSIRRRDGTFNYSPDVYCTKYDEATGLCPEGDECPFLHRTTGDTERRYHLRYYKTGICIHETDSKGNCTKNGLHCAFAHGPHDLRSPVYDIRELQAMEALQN

B1: 88342591_88342711_3111_3pUTR_ENSMUSG00000074480_ENSMUST00000172699|mouse|control|control (ssRNA)
RNA: GGGAGUUCUACAGUCCGACGAUCCUCCUUCCUCUCCCCUCCCAGGCUGGUGGUCUGGAGGGGAAGGCUGAGGAGAGGCAAGUUAAUUCACAAGAGGCAGGAGAGAGAGAGACCUCCCUCUGCCCUCAUCCCACAUCCUUUCCCCAACAGAGGAUUGAGCAUCA
B2: chr12:48362563:48362564:+_ENSG00000134291_ENST00000256686|hu_hu|hu_hu_hu_mus_False|78_98 (ssRNA)
RNA: GGGAGUUCUACAGUCCGACGAUCUCCGUCAAGCCCUUCAAGCCCCACUUGCGGGGGUGGUAAAAACCACUUUGUAUGGGGAAGGAAAAGAAACGCCAAAAACUUUCCAAAAAGCGGGGGUGGGGUGAGGCGGGAGGGGGAGGUCAACAGAGGAUUGAGCAUCA
B3: chr4:57314706:57314707:+_ENSG00000128050_ENST00000264221|hu_hu|motif|central (ssRNA)
RNA: GGGAGUUCUACAGUCCGACGAUCCAGUAUUUCAAAUAUAGCCUGUGUAGCAUGACUCAUGAUAUCCACUUCAGUCUGGCCGGUAAGAAGUCCAGCAAAGCAAAAUUUUGCAGCAAUCAGCUGUUCCUCAGACCACUGUGGGUCCAACAGAGGAUUGAGCAUCA
B4: chrX:140365796:140365797:-_ENSMUSG00000031285_ENSMUST00000033642|mus_mus|mus_mus_mus_hu_False|58_58 (ssRNA)
RNA: GGGAGUUCUACAGUCCGACGAUCCUUCUCAUUACUCAGUGCCUGCAAGGUUCUGGUUCGGUAGAAGCUACAGUGGGCACUAUGAGUGGGGCUAGGCAACCCAUUCAUCCGGGAGCCUCGCAUGUUCCUGGAUGUCUUAUCUCUCAACAGAGGAUUGAGCAUCA
B5: chr2:228220401:228220402:+_ENSG00000168958_ENST00000354503|hu_mus|motif|central (ssRNA)
RNA: GGGAGUUCUACAGUCCGACGAUCUAAUGAAGCUGCAUCUACCACAGUCAUGUCAUCUGAAGCUCCUUCAAUGGCUGCAUCGGGGUUUGAAAUGCCAUACCUGACGUUGUCAUGAUGAGGAUUAGAAGUGGCGGCAGCUGACCCCAACAGAGGAUUGAGCAUCA
B6: 144383123_144383243_104_3pUTR_ENSMUSG00000037062_ENSMUST00000163279|mouse|control|control (ssRNA)
RNA: GGGAGUUCUACAGUCCGACGAUCAGGUGGCGGGAGGCGGCGCCAGCCCCGCGCAGCUGUCGUUUCCUGGCGGGGAGGCGGGGGAGGGAAGAGGGCGGGCGCCCGCGAGCGCGCGCCUCUCCGCUCACACGCUGGGCCUGUCGCCAACAGAGGAUUGAGCAUCA
B7: chr1:163115887:163115888:-_ENSG00000143248_ENST00000313961|hu_hu|motif|central (ssRNA)
RNA: GGGAGUUCUACAGUCCGACGAUCUUAGAAAAAAUUCUAGCAAGACUUAUAAUCAUGAAAUACAGAAUUAAAAGUUUAAACCGGCCAAAAGUCCUAUGGCCUAUUAUUUAGCUGUGAAUGAGACACGUCAGGAGUAUAAAUCUGCAACAGAGGAUUGAGCAUCA
B8: chr4:140309118:140309119:+_ENSG00000164134_ENST00000296543|hu_hu|motif|central (ssRNA)
RNA: GGGAGUUCUACAGUCCGACGAUCAUAUCCAGGAGGCAUGAAAGCCAAAGCAUAAGGGAAAAGCUUAUGACAAUUUGCUCGGUAAAUUUCAGCAGCUUCUUUACAGUCUCCUAGGCUACCAUCAUACAAGGCUUCCAAUACCUCCAACAGAGGAUUGAGCAUCA
B9: chr11:70340070:70340071:+_ENSMUSG00000018286_ENSMUST00000018430|mus_mus|FALSE|FALSE (ssRNA)
RNA: GGGAGUUCUACAGUCCGACGAUCCAGAUCUUCUCUGUACCGGUAACACAUCUCCUUAAAGAGACUGGCGGCUGUGUGGACUAGUGGAGGCUCGUUCAGUUCAAUACUGUGGAAACCAAGCUGGUAAGUGACAGCGUCUGCCACCAACAGAGGAUUGAGCAUCA
B10: chr11:21042598:21042599:+_ENSMUSG00000020134_ENSMUST00000093290|mus_mus|FALSE|FALSE (ssRNA)
RNA: GGGAGUUCUACAGUCCGACGAUCGCUGUCAUGAGUAUAUUCAACCACCACCGUCUGGGCUCGAGAUAAAGUAUAUGAUAUGCUAUGCUGGUCCUUGUUGCUUAUUGCCUUGGCAGCCUGAGGAGUACAUGCAAUGUGCACGGUCAACAGAGGAUUGAGCAUCA
B11: chr3:76513020:76513021:+_ENSMUSG00000034098_ENSMUST00000038364|mus_mus|FALSE|FALSE (ssRNA)
RNA: GGGAGUUCUACAGUCCGACGAUCCGCACUACAGAGAGUGGUUUCAGCUUUGUCUCACUGUCAAUUUCCCUAGAAGUGGUUCUUUCUGUGCAGACACAGUCAUGCUCCUUUUUCAGAACUGAGAAAGCUCCUGACUUAUGUAACCAACAGAGGAUUGAGCAUCA
B12: chr14:78183846:78183847:+_ENSG00000119705_ENST00000557342|hu_hu|motif|central (ssRNA)
RNA: GGGAGUUCUACAGUCCGACGAUCGCAGUCUCAAAAAUCUUUCUUUUCAUCAUCAGAUGUUUGCGGAAGUUUUGGCCUUCGGGUGUGAACCUGGACCUUUACUCCAUCUAUAAUAUGAUUUUCCUGUUGUAGUGCAUUCCGAAGCAACAGAGGAUUGAGCAUCA
B13: 8172086_8172303_3811_CDS_ENSG00000178921_ENST00000314666|human|control|control (ssRNA)
RNA: GGGAGUUCUACAGUCCGACGAUCUUGGAGUUCCGGAGAAGAAAAUGCUACGUAACCUUCCCCGUGCGCACUCCACACGGGCAGCACGGCGCCCUCCAUCCCUCGCAGCAUCAGGGCUGGCCCAGGCCCCACACGCACGCUGGCCAACAGAGGAUUGAGCAUCA
B14: chrX:17854524:17854525:+_ENSMUSG00000037369_ENSMUST00000044484|mus_mus|FALSE|FALSE (ssRNA)
RNA: GGGAGUUCUACAGUCCGACGAUCUCGAGAAUUACUCUCAUUAGUGACAAAAAGCAGAUCAAAAACCUCCACCUCACAAAUACUACAAUAAUGAGCUGGUUCUUCUUUUGUCCGCCCGUGCCAUAUGAUCUCUUUUCCUGCAGCCAACAGAGGAUUGAGCAUCA
B15: 74671771_74678282_1214_CDS_ENSG00000168411_ENST00000361070|human|control|control (ssRNA)
RNA: GGGAGUUCUACAGUCCGACGAUCCCUAGUGCACUUAUCAGUGAGGACCUGCAGUUGGAGUCGGCACUGUGCUGAUUCUAACUCGGCCUGUUUCCUUAGCAUCUGUUCCUUCAGUAGGGAACUUUUCAUGCGCUCCUGUUCACUCAACAGAGGAUUGAGCAUCA
B16: chr2:232320318:232320319:-_ENSG00000115053_ENST00000322723|hu_hu|hu_hu_hu_mus_True|58_58 (ssRNA)
RNA: GGGAGUUCUACAGUCCGACGAUCACUAUUAAAGUCUACAAAACCAAACCCUUUGGAAGAACCAGUUUCCCGAUCAGUAACUAUCCUUGCACGAACAGAGCCCUCAAAUGAUUCUUUUAAGGUCUCUUCAGUGGUAUCCUCAGACAACAGAGGAUUGAGCAUCA
B17: chr1:243329018:243329019:-_ENSG00000143702_ENST00000366542|hu_hu|motif|central (ssRNA)
RNA: GGGAGUUCUACAGUCCGACGAUCCAAUUUAGUAGGUGUCCACUGAGCCUCCUCCCUUUGUUCUUGUUGUUGAAGUUUUGCGGAUGUUUGCUUUACCAAAGAAGUUUCCUUAUCAGUUUCACUUUUCUCUUUUCCAGGAGCAGACAACAGAGGAUUGAGCAUCA
B18: chr4:144460044:144460045:+_ENSG00000153147_ENST00000283131|hu_mus|hu_hu_hu_mus_False|28_68 (ssRNA)
RNA: GGGAGUUCUACAGUCCGACGAUCACGGUCCAUAGCCUGAAGAUCAACUUGCGGAUUCCAAUCUGAGUCAUACAAAAUGACUACAUCAGCAGUUGCAAGAUUGAUGCCAAGACCACCAGCACGUGUGCUUAGCAUAAAUACAAACAACAGAGGAUUGAGCAUCA
B19: chr9:53391610:53391611:-_ENSMUSG00000032047_ENSMUST00000034547|mus_hu|FALSE|FALSE (ssRNA)
RNA: GGGAGUUCUACAGUCCGACGAUCCAGAGAAACAGCUCCUCCAUUGAUAUUCACUUUUUGGGGAUCAAUCUCCAACAUUUUAAUGUUUGCUAGUACAACCAGACUAAAGGCUUCAUUUACUUCCCACAUUGCAAUAUCUUCUUUCAACAGAGGAUUGAGCAUCA
B20: 216189970_216190747_683_CDS_ENSG00000138363_ENST00000236959|human|control|control (ssRNA)
RNA: GGGAGUUCUACAGUCCGACGAUCGUGGUUUUUGGCUGCAGCUCUCAGUAAGGUUACUCCACCAAUGUCAAUUUGCUCCACAGCCUCCUCAACAGUUACACCUGGAGAAGCCACUGUCUUUACAAAGGGAUAGAGAUUGCAGGCCAACAGAGGAUUGAGCAUCA
B21: chrX:131338992:131338993:-_ENSMUSG00000033436_ENSMUST00000035559|mus_hu|motif|central (ssRNA)
RNA: GGGAGUUCUACAGUCCGACGAUCAUAACAUCACUCUGGAUGAUACAUUAUUCAACACUGGCAGCUGAAAGGAUCCCUUUACGGUAUGAGCAAGUGGAAAAGCAGUAACUUUCAAUUUUCAACGCUUCCACACUGCAAAAUCAUCAACAGAGGAUUGAGCAUCA
B22: chr4:148551591:148551592:-_ENSMUSG00000063077_ENSMUST00000060537|mus_hu|mus_mus_mus_hu_False|18_78 (ssRNA)
RNA: GGGAGUUCUACAGUCCGACGAUCACCUGACAAAAUUAAAUAUCCCUGUAAAUUAGACAAGAAGCAGCAGGCAACAAAGUCUUUGCUUUGGAAUAUGUGCCAGGAAAAGUCAUCUUGUAGACCCCAAUCAAGAGACAGUUCACACAACAGAGGAUUGAGCAUCA

This is one part of the list.

The target in the assay is T1, UNK ZnF1-3. Briefly: nsRBNS (natural sequence RNA bind-n-seq); RBNS binding buffer (assumed for nsRBNS): 25 mM Tris pH 7.5, 150 mM KCl, 3 mM MgCl2, 0.01% Triton X-100, 500 ug/ml BSA, 20 U/ml SUPERase-In, 4 C; UNK is unkempt and MSI1 is Musashi-1; names of the RNAs are library labels; protein concentration not given here; high values mean tight binding.
As for B1, the binding signal worked out at 0.75 enrichment R.
As for B2, the binding signal came to 2.08 enrichment R.
Then B3, with 1.05 enrichment R; and B4, with 0.389 enrichment R; and B5, with 0.787 enrichment R.
B6 registered a binding signal of 0.964 enrichment R.
For the molecule B7, the binding signal is 0.916 enrichment R.
With B8 the figure was 0.711 enrichment R.
Consider B9, for which the binding signal is 0.817 enrichment R.
With B10, the binding signal came out at 0.958 enrichment R.
As to B11, the binding signal is 0.731 enrichment R.
Turning to B12, the binding signal was determined as 0.602 enrichment R.
With B13 the figure was 0.976 enrichment R.
In turn, B14 gave a binding signal of 0.919 enrichment R.
Consider B15, for which the binding signal turned out to be 0.396 enrichment R.
Regarding B16, the binding signal stood at 0.668 enrichment R.
Regarding B17, the binding signal amounted to 0.395 enrichment R.
Regarding B18, the binding signal was 0.923 enrichment R.
With B19 the figure was 1.01 enrichment R; with B20, 1.43 enrichment R.
For B21, the binding signal came to 1.45 enrichment R.
Turning to B22, the binding signal stood at 1.73 enrichment R.
